This is an account of results in the antibiotic and cytotoxicity screens of Wong et al. (2023).

One test has as its system HSkMC. In words: cytotoxicity call (relative viability < 0.9). The conditions noted are these: 10 µM.
A further test relates to HepG2. In words: cytotoxicity call (relative viability < 0.9). The following applies: 10 µM.
In a further test the test system is S. aureus RN4220. Put plainly: growth inhibition call (relative growth <= 0.2). The following applies: 50 µM.

This is one part of the list.

For `Fc1ccc(-c2nc3c4ccccc4c4ccccc4c3[nH]2)cc1`, in the test on HSkMC, the cytotoxicity call is “inactive”. For the same molecule, the cytotoxicity call with HepG2 is “active”. Also, the growth inhibition call in the test on S. aureus RN4220 was “inactive”.
For the molecule `C[C@@H]1CN([C@H](C)CO)S(=O)(=O)c2ccc(-c3ccc(F)cc3)cc2O[C@H]1CN(C)S(C)(=O)=O`, the cytotoxicity call in the test on HSkMC and in the test with HepG2 was “inactive” in each case. Moreover, the growth inhibition call with S. aureus RN4220 was “inactive”.
For the molecule `C[C@H]1CN([C@@H](C)CO)C(=O)c2c(c3ccccc3n2C)-c2ccccc2CO[C@H]1CN(C)Cc1ccc(C(F)(F)F)cc1`, the cytotoxicity call in the test with HSkMC and with HepG2 was “inactive” throughout. The growth inhibition call in the test with S. aureus RN4220 is “inactive”.
Take `C[C@@H]1CN([C@H](C)CO)C(=O)c2cccc(NC(=O)NC3CCCCC3)c2O[C@@H]1CN(C)S(=O)(=O)c1cn(C)cn1`: the cytotoxicity call in the test on HSkMC and with HepG2 was “inactive” throughout. Further, the growth inhibition call with S. aureus RN4220 is “inactive”.
For the molecule `C[C@H]1CN([C@@H](C)CO)C(=O)CCCn2cc(nn2)CO[C@H]1CN(C)S(=O)(=O)c1cccc(C#N)c1`, the cytotoxicity call with HSkMC and in the test on HepG2 was “inactive” throughout. Also, the growth inhibition call in the test with S. aureus RN4220 was “inactive”.
Consider `CN1C(=O)c2cc(NS(=O)(=O)c3ccc(F)cc3)ccc2OC[C@@H]2O[C@@H](CC(=O)NCC(F)(F)F)CC[C@H]21`, for which the cytotoxicity call in the test with HSkMC and in the test with HepG2 was “inactive” each time. The growth inhibition call in the test with S. aureus RN4220 is “inactive”.
In the case of `C[C@H](CO)N1C[C@H](C)[C@@H](CN(C)CC2CC2)Oc2ccc(NC(=O)Cn3cnnn3)cc2CC1=O`, the cytotoxicity call in the test with HSkMC and in the test on HepG2 was “inactive” each time. In addition, the growth inhibition call in the test with S. aureus RN4220 was “inactive”.
Regarding `Nc1ccc(Oc2ccc3ccccc3c2Cl)c(Cl)c1`, the cytotoxicity call with HSkMC and with HepG2 was “inactive” each time. The growth inhibition call in the test with S. aureus RN4220 is “active”.
Regarding `COc1ccc(NC(=O)Nc2ccc3c(c2)CC(=O)N([C@H](C)CO)C[C@H](C)[C@H](CN(C)Cc2ccc(Cl)c(Cl)c2)O3)cc1`, in the test on HSkMC, the cytotoxicity call is “inactive”. The cytotoxicity call in the test with HepG2 was “active”. Moreover, the growth inhibition call in the test with S. aureus RN4220 was “inactive”.
Consider `C=CC[C@@H](CC(=O)N[C@H](CO)Cc1ccccc1)C(=O)NC[C@H](OC(=O)[C@@H](CC=C)Cc1ccc(F)cc1)c1ccccc1`, for which the cytotoxicity call in the test with HSkMC and in the test with HepG2 was “active” throughout. The growth inhibition call with S. aureus RN4220 was “inactive”.
On to `C[C@@H]1CN([C@@H](C)CO)C(=O)Cc2cc(NC(=O)Nc3cccc4ccccc34)ccc2O[C@H]1CN(C)Cc1ccccc1`, for which the cytotoxicity call in the test on HSkMC and with HepG2 was “inactive” each time. For the same molecule, in the test with S. aureus RN4220, the growth inhibition call is “inactive”.
`Cc1ccc(S(=O)(=O)N(C)C[C@@H]2OCCCC[C@@H](C)Oc3ccc(NC(=O)Nc4cccc5ccccc45)cc3C(=O)N([C@H](C)CO)C[C@@H]2C)cc1`: the cytotoxicity call in the test with HSkMC and in the test on HepG2 was “inactive” throughout. For the same molecule, in the test on S. aureus RN4220, the growth inhibition call was “inactive”.
Take `C[C@@H]1CN([C@@H](C)CO)C(=O)c2cc(NS(=O)(=O)c3cn(C)cn3)ccc2O[C@@H](C)CCCCO[C@@H]1CN(C)C(=O)Nc1ccc(C(F)(F)F)cc1`: the cytotoxicity call in the test with HSkMC and in the test with HepG2 was “inactive” each time. Besides, the growth inhibition call with S. aureus RN4220 was “active”.
With `C[C@@H](NC(=O)N(C)C[C@@H]1OCc2ccccc2-c2c(n(C)c3ccccc23)C(=O)N([C@@H](C)CO)C[C@@H]1C)c1ccccc1`, the cytotoxicity call in the test on HSkMC and with HepG2 was “inactive” throughout. Further, the growth inhibition call in the test on S. aureus RN4220 is “inactive”.
For `C[C@@H]1CCCCO[C@@H](CN(C)C(=O)Nc2ccc3c(c2)OCO3)[C@@H](C)CN([C@H](C)CO)C(=O)c2cc(NC(=O)C3CCCCC3)ccc2O1`, the cytotoxicity call with HSkMC and in the test on HepG2 was “inactive” throughout. Further, the growth inhibition call in the test on S. aureus RN4220 was “inactive”.
On to `C[C@@H]1CCCCO[C@@H](CN(C)C(=O)Nc2ccc3c(c2)OCO3)[C@H](C)CN([C@@H](C)CO)C(=O)c2cc(NC(=O)CCC(F)(F)F)ccc2O1`, for which the cytotoxicity call with HSkMC and in the test on HepG2 was “inactive” in each case. In the test with S. aureus RN4220, the growth inhibition call was “inactive”.
Turning to `C[C@H]1CN([C@@H](C)CO)C(=O)Cc2cc(NC(=O)C3CC3)ccc2O[C@H]1CN(C)S(=O)(=O)c1ccc(F)cc1`, the cytotoxicity call in the test with HSkMC and in the test with HepG2 was “inactive” each time. Also, in the test on S. aureus RN4220, the growth inhibition call is “inactive”.
On to `O=C(C[C@@H]1C=C[C@H](NC(=O)Cc2ccccn2)[C@@H](CO)O1)NCCc1ccncc1`, for which the cytotoxicity call with HSkMC and in the test on HepG2 was “inactive” each time. In addition, the growth inhibition call with S. aureus RN4220 is “inactive”.
Regarding `C[C@H](CO)N1C[C@H](C)[C@@H](CN(C)Cc2ccncc2)Oc2c(NS(=O)(=O)c3ccccc3)cccc2C1=O`, the cytotoxicity call in the test with HSkMC and in the test with HepG2 was “inactive” in each case. The growth inhibition call in the test with S. aureus RN4220 is “inactive”.
Consider `CN1C(=O)c2cc(NC(=O)Cc3cccs3)ccc2OC[C@@H]2O[C@@H](CC(=O)NCCc3ccncc3)CC[C@H]21`, for which the cytotoxicity call in the test with HSkMC and with HepG2 was “inactive” throughout. In addition, in the test on S. aureus RN4220, the growth inhibition call is “inactive”.
Consider `COc1ccc(S(=O)(=O)Nc2ccc3c(c2)C(=O)N([C@@H](C)CO)C[C@@H](C)[C@@H](CN(C)C(=O)c2ccccc2)OCCCC[C@H](C)O3)cc1`, for which the cytotoxicity call in the test with HSkMC and in the test on HepG2 was “inactive” throughout. Also, the growth inhibition call in the test with S. aureus RN4220 is “inactive”.
For the molecule `C[C@H](CO)N1C[C@H](C)[C@H](CN(C)S(=O)(=O)c2cccs2)Oc2ncc(-c3ccccc3)cc2C1=O`, the cytotoxicity call with HSkMC and in the test on HepG2 was “inactive” throughout. Also, the growth inhibition call with S. aureus RN4220 is “inactive”.
On to `C[C@@H]1CN([C@H](C)CO)C(=O)Cc2cc(NC(=O)CCCCCC(=O)Nc3ccccc3N)ccc2O[C@@H]1CN(C)Cc1ccccc1`, for which the cytotoxicity call with HSkMC and in the test with HepG2 was “inactive” each time. Besides, the growth inhibition call with S. aureus RN4220 was “inactive”.
`COc1ccc(S(=O)(=O)Nc2ccc3c(c2)CC(=O)N([C@H](C)CO)C[C@@H](C)[C@@H](CN(C)Cc2ccc(C(=O)O)cc2)O3)cc1`: the cytotoxicity call in the test on HSkMC (human skeletal muscle cells) and with HepG2 was “inactive” in each case. Moreover, the growth inhibition call in the test on S. aureus RN4220 was “inactive”.
